# Hit rate of the full screen: of about 110,000 compounds, about 230 (0.21%) showed an effect of 50% or more. Some of the results follow.
# Target: DPAP1 (Plasmodium falciparum, UniProt Q8IIJ9)
# Experiment: primary screen, percent inhibition; read by cleavage of a fluorogenic dipeptide substrate; higher = more effect of the substance
# Set-up: species or system P. falciparum D10 trophozoite lysates; single well
# 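Note: 30 min substrate incubation versus DMSO and 10 µM JCP410 controls.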
# Chain of DPAP1 (Q8IIJ9 whole entry, looked up): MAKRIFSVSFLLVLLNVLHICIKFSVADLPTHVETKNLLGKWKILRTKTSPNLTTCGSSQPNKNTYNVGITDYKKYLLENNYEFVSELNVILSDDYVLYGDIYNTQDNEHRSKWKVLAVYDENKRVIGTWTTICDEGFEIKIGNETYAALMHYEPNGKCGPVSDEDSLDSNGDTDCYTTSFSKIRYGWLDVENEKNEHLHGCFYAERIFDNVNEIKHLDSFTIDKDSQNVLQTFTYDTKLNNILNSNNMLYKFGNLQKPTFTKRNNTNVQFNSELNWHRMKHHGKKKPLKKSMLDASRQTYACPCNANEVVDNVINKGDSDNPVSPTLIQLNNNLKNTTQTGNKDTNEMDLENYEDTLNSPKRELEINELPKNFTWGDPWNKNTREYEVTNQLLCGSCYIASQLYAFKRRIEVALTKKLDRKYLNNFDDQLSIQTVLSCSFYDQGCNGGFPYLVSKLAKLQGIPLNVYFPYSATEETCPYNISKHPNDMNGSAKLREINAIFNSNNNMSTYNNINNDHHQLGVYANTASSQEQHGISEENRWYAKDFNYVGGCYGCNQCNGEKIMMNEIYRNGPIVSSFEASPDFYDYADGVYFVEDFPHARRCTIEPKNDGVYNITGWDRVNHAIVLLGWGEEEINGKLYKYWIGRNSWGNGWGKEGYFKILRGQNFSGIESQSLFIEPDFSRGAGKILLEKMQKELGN
row,SMILES,% Inhibition @ 10 uM [%]
1,COc1ccc(C(=O)N2CCN(c3ccc4nnc(-c5ccc(F)cc5)n4n3)CC2)cc1OC,-8.58
2,COc1cc(CNCCO)cc(Cl)c1OCc1ccc(Cl)cc1Cl,-6.02
3,CCOC(=O)N1CCN(C(=O)C2CCC(CNc3nc(S)nc4ccccc34)CC2)CC1 (stereo not shown),5.12
4,O=C1N/C(=C/c2ccc(O)c(Cl)c2)C(=O)N1c1ccc(Cl)cc1,-0.297
5,CCC1SC(NC(=O)C(Cc2ccccc2)N2C(=O)c3ccccc3C2=O)=NC1=O (stereo not shown),2.56
6,COc1cc(-c2ncnn2-c2ccc(Br)cc2F)cc(OC)c1OC,-1.36
7,COc1ccc(CCNC(=O)CCc2c(C)nc3c(c(C)nn3C(C)(C)C)c2C)c(OC)c1OC,2.93
8,CCCn1cnn2c(=O)cc(C)nc12,-1.64
9,CCOc1cc(/C=C2/SC(=O)NC2=O)cc(Cl)c1OCC,-2.99
10,CC[C@H](NC(=O)[C@@H](NC(=O)c1ccc(-c2ccccc2Cl)cc1)C1CCCCC1)C(=O)c1nnc(-c2ccccc2)o1,1.35
11,O=C(NCCc1ccccc1)/C(=C/c1ccc2c(c1)OCO2)NC(=O)c1cccc(Br)c1,-4.49
12,O=C1/C(=C/c2ccccc2F)C(c2ccccc2)=NN1c1ccc([N+](=O)[O-])cc1,-3.62
13,Cc1ccccc1OCCOc1ccc(Oc2nc(N(C)C)nc(N3CCCC3)n2)nn1,-3.08
14,CCCC(C)C1(CC)C(=O)N=C(Nc2ccccc2OC)NC1=O (stereo not shown),6.43
15,CCc1ccc(NC(=O)c2cc([N+](=O)[O-])cc([N+](=O)[O-])c2)cc1,0.827
16,CC(NC(=O)C1CCN(S(C)(=O)=O)CC1)c1ccccc1 (stereo not shown),0.387
17,C=C(C)CSc1nc2c(c(=O)[nH]c(=O)n2C)n1CC(=C)C,-5.14
18,CCN(CCN(C)C)Cc1cccc(Br)c1,-1.78
19,Cc1cc(C)c(NC(=O)c2cnn(C)c2)c(C)c1,-7.9
20,O=C(C1Cc2ccccc2O1)N1CCCCC1 (stereo not shown),-0.856
21,CN1CCN(C(=O)Cc2ccc(Cl)cc2)CC1,0.51

row,SMILES,% Inhibition @ 10 uM [%]
1,CCn1cc(/C=C2/NC(=O)N(CC(=O)Nc3cccc(C)c3)C2=O)c2ccccc21,7.54
2,CC1=C(C(=O)Nc2cccc(C)c2C)C(c2cccc(Cl)c2)NC(=O)N1 (stereo not shown),-5.69
3,Cc1nn(CCCC(=O)NC(C)c2ccccc2)c(=O)c2nn(-c3ccccc3)c(C)c12 (stereo not shown),-5.74
4,CC(C)(C)c1ccc(Oc2nc3ccccn3c(=O)c2/C=C(\C#N)C(=O)N2CCCCC2)cc1,18.4
5,Cc1ccc(CSc2nc3nccnc3c(=O)n2Cc2ccc(F)cc2)cc1,-4.05
6,COc1ccc(NC(=O)CN(c2ccc(F)cc2)S(=O)(=O)c2ccccc2)c(OC)c1,-12.1
7,CCN(CC)CCN1C(=O)c2ccccc2NC1c1ccc(F)cc1 (stereo not shown),-10.9
8,O=C1N=C(Nc2ccc(O)cc2)S/C1=C\c1ccccc1,-6.25
9,CC1CCc2c(sc(NC(=O)c3cccnc3Cl)c2C#N)C1 (stereo not shown),-0.725
10,O=C(Nc1cnn(Cc2ccc(F)cc2)c1)c1ccc(Br)cc1,-5.41
11,Cn1cc(C=C2C(=O)NC(=O)NC2=O)c2ccccc21,1.24
12,CC(=O)Nc1cccc(C2=CC(c3cccs3)n3ncnc3N2)c1 (stereo not shown),2.01
13,O=C(O)C1CCCCC1C(=O)Nc1nc(-c2ccccc2)cs1 (stereo not shown),0.408
14,COc1ccc(-c2csc(/C(C#N)=C/c3cccc4ccccc34)n2)cc1,-0.268
15,COC(=O)C(Cc1ccccc1)NC(=O)c1ccc(Cl)cc1 (stereo not shown),2.94
16,Cc1ccc(/C=C2\C(=O)NC(=S)N(c3ccc(Cl)cc3Cl)C2=O)o1,10.6
17,NC(=O)c1cc(S(=O)(=O)N2CCN(Cc3ccc4c(c3)OCO4)CC2)cs1,0.706
18,O=C(CC1COc2ccccc2O1)NCCc1ccccc1 (stereo not shown),2.44
19,CCOCCCNC(=O)C(c1ccccc1)N(Cc1cccs1)C(=O)c1ccc2c(c1)OCO2 (stereo not shown),2.84
20,CCc1ccc(OCC(=O)Nc2ccc(S(=O)(=O)N3CCCCC3)cc2)cc1,2.79
21,COc1ccc(S(=O)(=O)N(CC(=O)Nc2ccc(F)cc2)c2cccc(Cl)c2)cc1,-0.95

row,SMILES,% Inhibition @ 10 uM [%]
1,CCN1CCC(C#N)(NC(=O)[C@H](CC(C)C)NC(=O)OCc2ccccc2)CC1,-6.98
2,CCc1cccc(CC)c1C(O)c1cccnc1 (stereo not shown),0.343
3,c1nc(N2CCOCC2)c2sc3nc(N4CCOCC4)c4c(c3c2n1)CCCC4,3.73
4,O=C(c1ccco1)N1N=C(c2ccco2)CC1c1ccco1 (stereo not shown),-4.62
5,C/C(=C1\C(=O)N(c2nc3ccccc3s2)N=C1C(F)(F)F)N1CCN(C)CC1,2.69
6,CSc1cccc(NC(=O)C2CCN(S(=O)(=O)c3ccccc3)CC2)c1,4.28
7,C=CCOc1ccc(C2CC(=O)Oc3c2c(=O)oc2ccccc32)cc1 (stereo not shown),-4.04
8,CS(=O)(=O)N1CCCC(C(=O)N2CCc3ccccc3C2)C1 (stereo not shown),3.79
9,COc1ccccc1N1CCN(C(=O)C(C)Oc2cccc(Cl)c2)CC1 (stereo not shown),3.32
10,O=C(Nc1ccc(Cl)cc1C(=O)N1CCCCCC1)c1ccco1,-3.1
11,CC1=C(C(=O)OCc2ccccc2)C(c2ccc(C)cc2)C2=C(O)CCCC2=N1 (stereo not shown),10.2
12,O=C(CN1C(=O)c2cccc3cccc1c23)Nc1ccc(Oc2ccccc2)cc1,1.88
13,Cc1cc(C)c(C#N)c(SCCC(=O)NCCc2ccccc2)n1,-0.994
14,COc1ccc(C(=O)N2CCCC(C(=O)N3CCCCCC3)C2)cc1 (stereo not shown),0.565
15,CC1CCC(N2CCCC(C(N)=O)C2)C1 (stereo not shown),-3.5
16,CCOC(=O)c1c(NC(=O)c2nnc(O)c3ccccc23)sc(C)c1C,2.57
17,Cc1cc(-n2c(SCC(=O)NC3CCCCC3)nc3nnc(C)c-3c2N)ccc1Cl,-3.78
18,COc1cccc(/C=c2\sc3nc(-c4cccc(C)c4)nn3c2=O)c1,-1.18
19,COc1cc(C(=O)NC(c2ccccc2)c2c(O)ccc3ccccc23)cc(OC)c1OC (stereo not shown),10.2

# Reference: PMC6919601, “Identification of Plasmodium dipeptidyl aminopeptidase allosteric inhibitors by high throughput screening” (PLoS ONE, 2019)
